Laboratory results published in PubChem BioAssay AID485344 (National Center for Advancing Translational Sciences (NCATS), 2010).
Among all 340,000 compounds or so, about 6,900 (2%) were called active. No stated cut-off is given here; in the data, active means inhibition above about 30%; inactive means below that, where a call was filed. The entries are a selection whose mix differs from that of the whole data set. The source gives no active or inactive call for entries shown without one.

The compounds below were run against D(2) dopamine receptor (Homo sapiens) (UniProt P14416) (assay: HTS Assay for Allosteric Antagonists of the Human D2 Dopamine Receptor: Primary Screen for Antagonists). Conditions: HEK293 TREx D2 cells, calcium flux, dopamine EC80; at 10 µM; stronger effect = higher value.
Procedure, shortened: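 Inhibition of EC80 dopamine-driven calcium flux, recorded kinetically, defines activity here; cells are a tetracycline-induced HEK293 T-REx line expressing force-coupled D2.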
Further: 0% is about no effect.

Sequence of UniProt P14416 (P14416 whole entry, looked up): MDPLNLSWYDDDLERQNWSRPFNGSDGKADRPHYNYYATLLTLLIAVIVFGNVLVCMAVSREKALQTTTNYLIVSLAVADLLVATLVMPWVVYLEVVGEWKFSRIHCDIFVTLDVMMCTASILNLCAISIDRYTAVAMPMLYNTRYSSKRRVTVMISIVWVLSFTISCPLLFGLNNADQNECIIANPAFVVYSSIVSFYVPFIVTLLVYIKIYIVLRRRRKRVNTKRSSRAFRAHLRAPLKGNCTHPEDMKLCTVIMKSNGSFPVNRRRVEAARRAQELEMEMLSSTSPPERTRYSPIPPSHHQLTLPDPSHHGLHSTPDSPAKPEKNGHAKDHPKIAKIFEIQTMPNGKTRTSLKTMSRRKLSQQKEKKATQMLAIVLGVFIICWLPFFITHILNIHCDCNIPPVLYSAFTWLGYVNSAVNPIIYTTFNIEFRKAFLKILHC

SMILES	inhibition
COc1ccc(Nc2c3c(nc4nncn24)CCC3)cc1Cl	8.5%
O=C(Nc1ccccc1C(F)(F)F)N1CCC2(CC1)Oc1ccccc1C(=O)N2Cc1ccccc1F	-3.87%
CC(=O)Nc1ccc(NC(=O)CCc2c(C)nc3c(c(C)nn3-c3ccccc3)c2C)cc1	1.03%
CCCc1cc(=O)[nH]c(Nc2ccc(C)c(O)c2)n1	-7.02%
CCOC(=O)c1c(C)oc2nc(C)nc(NCc3ccc(OC)cc3)c12	-13%
COCCNC(=O)c1ccc2c(c1)N(Cc1c(F)cccc1Cl)C(=O)c1ccccc1S2	-1.84%
O=c1c2ccccc2nc(N2CCN(c3cccc(Cl)c3)CC2)n1-c1ccccc1	0.409%
CCN(CC)CCCNC(=O)c1nn(-c2ccc(OC)cc2)c(=O)c2c1c1ccccc1n2C	-7.76%
CCC(C(=O)N1CCN(c2ccc(OC)cc2)CC1)n1nc(C)n2c(cc3occc32)c1=O (stereo not given)	3.89%
Nc1ccc(S(=O)(=O)NC2(C(F)(F)F)NC(=O)N(c3cccc(Cl)c3)C2=O)cc1 (stereo not given)	-16%
Cc1c(Cl)cccc1NC(=O)Cn1cnc(S(=O)(=O)N2CCCC2)c1	-25.2%
COc1ccc(NC(=O)CC2C(=O)N(c3ccc(C)cc3)C(=O)N2Cc2ccc(C)cc2)cc1 (stereo not given)	-4.07%
COc1cccc2[nH]c(C(=O)NCc3ccccc3)cc12	active: 41.7%
Cc1nnc(NCc2ccc(F)cc2)c2c1nnn2Cc1ccccc1Cl	-0.991%
CCOc1ccc(NC(=O)CCn2nc(C)c(S(=O)(=O)N3CCCCC3)c2C)cc1	3.43%
COc1ccccc1CNCC(=O)Nc1cc(S(=O)(=O)N2CCCCCC2)ccc1Cl	active: 85.5%
CC(Oc1ccc2ccc(=O)oc2c1)C(=O)NC(Cc1c[nH]c2ccc(O)cc12)C(=O)O (stereo not given)	active: 43.8%
COc1ccccc1N1CCN(S(=O)(=O)c2c(C)sc3ncn(CC(=O)NCCN(C)C)c(=O)c23)CC1	9.31%
COc1ccc(OC)c(NC(=O)CSC2=Nc3ccccc3C3=NC(CCC(=O)NCCc4ccccc4)C(=O)N23)c1 (stereo not given)	-22.3%
CCc1ccc(N2C(=O)N(CC(=O)C(C)(C)C)c3ccccc3S2(=O)=O)cc1	6.53%
Cc1ccc(-c2nnc(Nc3cccc(Br)c3)c3ccccc23)cc1S(=O)(=O)NCC1CCCO1 (stereo not given)	-9.72%
Cc1ccc(NC(=O)CCCn2nc(C)c3sc4ccccc4c3c2=O)c(Cl)c1	-1.67%
CCC(C(=O)Nc1cccc(C#N)c1)n1nc(-c2ccccc2)ccc1=O (stereo not given)	-1.14%
COC(=O)c1ccc(/C=C/c2c(-c3ccc(OC)cc3)oc3ccccc23)cc1	active: 47%

SMILES	inhibition
O=C(c1ccc2c(c1)N(Cc1ccc(Cl)cc1)C(=O)c1ccccc1S2(=O)=O)N1CCc2ccccc21	10.3%
O=C(NCc1ccc(F)cc1)C(=O)NCC(c1ccco1)S(=O)(=O)c1cccs1 (stereo not given)	-9.16%
CCN(CC(=O)Nc1cc(Cl)ccc1C)C(=O)CCOc1ccccc1C	active: 31.2%
CCOc1ccc(C2C(=O)N(C3CCCCCC3)CC(=O)N2CCc2ccc(Cl)cc2)cc1OC (stereo not given)	10%
O=C(Cn1ccc2cc(S(=O)(=O)N3CCCC3)ccc21)NCc1ccccc1Cl	8.02%
CCN1c2ccccc2-c2nc(SCC(=O)Nc3cc(F)ccc3F)ncc2S1(=O)=O	-6.3%
O=C(NC1CCCC1)c1cc(-c2ccccc2O)on1	active: 47.5%
CCOc1ccc(NC(=O)CCNS(=O)(=O)c2cccc3nsnc23)cc1	-3.06%
CCc1c(C(C)S(=O)(=O)c2ccccc2)[nH]c(=O)n1CC (stereo not given)	active: 34.6%
CCc1cccc(C)c1NC(=O)C(CC)Sc1nncn2c1cc1occc12 (stereo not given)	7.29%
CCS(=O)(=O)N1CCc2cc(C(=O)Nc3cc(OC)c(Cl)cc3OC)ccc21	17.8%
COc1ccc(NC(=O)c2oc3ccccc3c2NC(=O)COc2ccc(F)cc2)c(OC)c1	11.3%
Cc1ccc(NC(=O)Cn2cc(C(=O)C3CCCCC3)c3ccccc32)c(C)c1	6.51%
Cc1cccc(C(=O)Nc2nnc(S(=O)(=O)N3CCCc4ccccc43)s2)c1	-19.6%
CCOC(=O)c1c(C)n(-c2ccccc2)c2ccc(OC(=O)c3cc(OC)cc(OC)c3)cc12	0.427%
CCc1ccc(NC(=O)c2cc(C)nn2-c2ccccc2)cc1	-14%
CCOC(=O)c1c(C)[nH]c(C)c1S(=O)(=O)NCC1CCN(Cc2ccccc2OC)CC1	active: 32.9%
CCOC(=O)c1c(NC(=O)c2cc3ccccc3c(=O)o2)sc2c1CCC(C(C)(C)C)C2 (stereo not given)	-9.4%
Cc1cc(=O)n(CC(=O)NC(C)c2ccccc2)c2c1c(C)nn2C (stereo not given)	-3.53%
CCOc1cc2[nH]c(=S)n(Cc3ccc(C(=O)NCCN(CC)CC)cc3)c(=O)c2cc1OCC	active: 49.7%
CCC1ON(c2ccccc2)C2c3nc4ccccc4n3CC12 (stereo not given)	active: 36.2%
Cc1cccc(CN2C(=O)c3ccccc3Sc3ccc(C(=O)NCc4cccs4)cc32)c1	-9.47%
CCOC(=O)N1CCc2c(sc3c2c(=O)n(-c2ccc(F)cc2)c(=O)n3CC(=O)c2ccccc2)C1	-22.1%
O=C(NCCc1ccccc1)C1COc2ccccc2C1 (stereo not given)	19.1%

SMILES	inhibition
CC(C)c1ccc(S(=O)(=O)c2cnc(SCC(=O)Nc3ccc(F)cc3F)nc2N)cc1	2.53%
Cc1ccc(-n2nc3c(N4CCC(C(=O)NCCC(C)C)CC4)nnc(C)c3c2C)cc1	2.94%
O=C(CN1CCN(c2ccc(Cl)cc2)CC1)Nc1ccc(F)c(F)c1	-13.2%
O=C(Cn1nnnc1-c1ccccc1F)Nc1ccc(F)c(F)c1	-7.77%
CCC(=O)N1c2ccccc2CC1C(=O)NCCc1ccc(Cl)cc1 (stereo not given)	7.59%
CCOc1ccccc1NC(=O)c1nnn(CC(=O)Nc2ccccc2CC)c1N	19.8%
COc1ccc(NC(=O)c2[nH]nc3c2CSc2ccccc2-3)c(OC)c1	-7.17%
CCC(Cc1ccccc1)NC(=O)Cn1ncc2c3ccccc3n(Cc3ccc(F)cc3)c2c1=O (stereo not given)	-12.2%
CCn1cc2nc(SCc3cccc(F)c3)n(CCc3ccccc3)c(=O)c2n1	-7.87%
COc1ccc(Cl)cc1NC(=O)CCCS(=O)(=O)c1nc(-c2ccc(OC)c(OC)c2)cc(C(F)(F)F)n1	-1.48%
O=C(O)CCn1ccc2cc(S(=O)(=O)N3CCCCC3)ccc21	-1.3%
O=C(NCc1ccccc1Cl)C1CCN(c2ncnc3c2nc2n3CCCCC2)CC1	13.8%
COc1ccc(-c2csc(-c3c(N)c(C(=O)c4ccccc4)n4ccccc34)n2)cc1	4.11%
Cc1cc(C)n2c(Nc3cccc(C(F)(F)F)c3)c(-c3ccsc3)nc2n1	10.4%
Cc1nnc(NC(=O)CSCc2cc(=O)c3ccc(C)c(C)c3[nH]2)s1	-1.45%
CC1CCN(S(=O)(=O)c2cn(CC(=O)Nc3ccc(F)cc3)c(=O)c3ccccc23)CC1	6.06%
CC(C)CCNC(=O)c1ccc2c(c1)N(C)C(=O)c1ccccc1S2	active: 47.4%
CC(C)c1nn2c(=O)cc(COC(=O)c3ccccc3Cl)nc2s1	9.18%
CCOc1cc2[nH]c(=O)n(CCCCCC(=O)NC(C)CC)c(=O)c2cc1OCC (stereo not given)	-6.14%
COc1ccc(N2CCN(Cc3nc(-c4ccc(C)cc4)no3)CC2)cc1	-10.1%
O=C(CN1CCN(c2ccccc2)CC1)Nc1ccc(OCc2ccccc2)cc1	active: 55.5%
CCCOc1cccc(C2c3c(oc4cc(C)c(C)cc4c3=O)C(=O)N2CCCN2CCOCC2)c1 (stereo not given)	-9.79%
CSc1cccc(NC(=O)CN(C)S(=O)(=O)c2ccc3c(c2)CCCN3C(C)=O)c1	17.1%
CCC(=O)N1CCc2cc(S(=O)(=O)NC(C(=O)NCCc3ccc(C)cc3)C(C)C)ccc21 (stereo not given)	0.435%

SMILES	inhibition
Cc1ccc(-c2n[nH]c3c2C(c2cccs2)N(c2ccc(Cl)cc2)C3=O)cc1 (stereo not given)	16%
Cc1ccc(C)c(C(=O)CSc2nc3cc(C(=O)NC4CCCC4)ccc3c(=O)n2CC2CCCO2)c1 (stereo not given)	-4.34%
COCc1cc(C)n(CC(=O)Nc2cccc(C(C)=O)c2)c(=O)c1C#N	11.2%
Cc1ccc(-c2nc3cc(NC(=O)c4cc(Br)ccc4Cl)ccc3o2)cc1	-2.45%
CCOc1ccccc1C(=O)N1CCCCC1CCN1CCOCC1 (stereo not given)	-3.28%
COc1cc(CC2COC(c3ccc(O)c(OC)c3)C2COC(C)=O)ccc1O (stereo not given)	active: 44.7%
O=C1COc2ccc(-c3cc(-c4ccc(F)cc4)c4c(n3)-c3ccccc3OC4)cc2N1	6.16%
CCOC(=O)C1(CC2CCCCO2)CCN(Cc2nc(-c3cccs3)oc2C)CC1 (stereo not given)	active: 69.3%
Cc1ccc(C(=O)CC2(O)C(=O)N(Cc3ccccc3)c3ccc(Br)cc32)cc1 (stereo not given)	-14.5%
CCN(C(=O)c1ccc2c(=O)n3c(nc2c1)CCCCC3)c1cc(C)ccc1C	2.33%
CSc1nn(Cc2ccc(F)cc2)c(N)c1S(=O)(=O)c1ccc(Cl)cc1	-0.216%
CCOc1ccc(S(=O)(=O)N2CCN(c3ccc(C)cc3C)CC2)c2ccccc12	6.25%
COc1ccc(N2C(=O)CCC2=O)cc1	active: 34.1%
CCCN(CCC)CCCNC(=O)C1CCN(S(=O)(=O)c2cccc3nsnc23)CC1	10.6%
COc1cccc(CSc2nc(-c3ccccc3OC)nc3c2Cc2c(CO)cnc(C)c2O3)c1	4.92%
Cc1[nH]c2ccccc2c1C(=O)C(=O)NC1CC(=O)N(c2ccccc2)C1 (stereo not given)	22.8%
CCOc1ccccc1CNC(=O)CCn1cccn1	-0.0411%
COC(=O)c1ccc(NC(=O)CN(c2cccc(C(F)(F)F)c2)S(C)(=O)=O)cc1	-0.407%
Cc1cccc(-n2c(SCC(=O)Nc3ccccc3C)nc3c(oc4ccccc43)c2=O)c1	-11.6%
CCc1ccccc1N1C(=O)N(C)c2ccccc2S1(=O)=O	13.9%
CCCCOC(=O)c1ccc(NC(=O)/C(C#N)=C/c2ccc(C)o2)cc1	-8.18%
O=C(COC(=O)c1cc(-c2cccs2)nn1-c1ccccc1)Nc1ccc(Cl)c([N+](=O)[O-])c1	active: 43.9%
Cc1ccc(NC(=O)COCc2cc(-c3cccs3)on2)cc1Cl	12.8%
